# Source: PMC13586215
# Amino acid sequences for entries named in this document (tags omitted). A change or cut given only in a name is not applied to a line headed by its entry.
# UniProt Q17RN3: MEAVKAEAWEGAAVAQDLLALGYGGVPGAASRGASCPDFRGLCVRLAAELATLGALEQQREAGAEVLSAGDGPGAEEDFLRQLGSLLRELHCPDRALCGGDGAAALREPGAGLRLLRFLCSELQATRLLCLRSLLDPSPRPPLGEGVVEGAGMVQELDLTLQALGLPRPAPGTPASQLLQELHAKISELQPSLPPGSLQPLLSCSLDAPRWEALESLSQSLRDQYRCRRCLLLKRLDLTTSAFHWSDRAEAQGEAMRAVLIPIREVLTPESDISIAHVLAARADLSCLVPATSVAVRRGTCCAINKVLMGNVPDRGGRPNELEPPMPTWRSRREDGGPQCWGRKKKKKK
# No constants are given. Whether binding was seen depends on the method and setting. Binding seen in cells or lysates may run through a third protein. Some binding calls cover weakened binding; strength is not graded here. For some assays here: Sequences can lack the tags named with a protein.
# T1: FLAG-HA-RTCB (human) (UniProt Q9Y3I0)
# T1 sequence: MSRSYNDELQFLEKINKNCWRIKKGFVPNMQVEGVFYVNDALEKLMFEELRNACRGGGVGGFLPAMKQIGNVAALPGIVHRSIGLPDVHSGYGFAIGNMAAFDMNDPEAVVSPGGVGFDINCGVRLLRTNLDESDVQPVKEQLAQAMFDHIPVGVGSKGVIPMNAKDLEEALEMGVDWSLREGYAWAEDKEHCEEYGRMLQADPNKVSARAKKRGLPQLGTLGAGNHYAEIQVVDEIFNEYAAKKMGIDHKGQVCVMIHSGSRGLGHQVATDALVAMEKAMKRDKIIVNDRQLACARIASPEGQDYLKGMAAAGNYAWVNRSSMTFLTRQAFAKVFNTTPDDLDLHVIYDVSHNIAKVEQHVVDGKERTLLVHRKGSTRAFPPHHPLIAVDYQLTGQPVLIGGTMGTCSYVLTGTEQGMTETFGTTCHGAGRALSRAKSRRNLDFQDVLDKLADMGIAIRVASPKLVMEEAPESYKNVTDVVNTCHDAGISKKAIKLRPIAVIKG
# How the values were obtained:
# Assay in all cases: co-IP; anti-FLAG M2 magnetic beads with cleared lysates of doxycycline-induced HEK FITR stable lines; lysis buffer 30 mM HEPES pH 7.3, 100 mM KCl, 5 mM MgCl2, 1.0 % NP-40, 10 % glycerol; binding 2 h at 4 °C, five washes, elution with 3xFLAG peptide; western blot of input and eluate
# FLAG-HA-RTCB (human) = biological target: T1, FLAG-HA-RTCB (human)
# [1] = biological target: FLAG-HA-tagged FAM98A(1-335) (human) (UniProt Q8NCA5)
# [2] = biological target: FLAG-HA-tagged FAM98C (human) (UniProt Q17RN3)
# [3] = biological target: N-terminally FLAG-HA-tagged, full-length FAM98A (human) (UniProt Q8NCA5)
binding (FLAG-HA-RTCB (human)),binding [1],binding [2],binding [3],Molecule
binds,,,,FAM98A (endogenous) (from UniProt Q8NCA5 1-518)
binds,,,,FAM98C (endogenous) (from UniProt Q17RN3-1 1-349)
,binds,binds,binds,"RTCB (endogenous) (enzyme, UniProt Q9Y3I0 1-505) MSRSYNDELQFLEKINKNCWRIKKGFVPNMQVEGVFYVNDALEKLMFEELRNACRGGGVGGFLPAMKQIGNVAALPGIVHRSIGLPDVHSGYGFAIGNMAAFDMNDPEAVVSPGGVGFDINCGVRLLRTNLDESDVQPVKEQLAQAMFDHIPVGVGSKGVIPMNAKDLEEALEMGVDWSLREGYAWAEDKEHCEEYGRMLQADPNKVSARAKKRGLPQLGTLGAGNHYAEIQVVDEIFNEYAAKKMGIDHKGQVCVMIHSGSRGLGHQVATDALVAMEKAMKRDKIIVNDRQLACARIASPEGQDYLKGMAAAGNYAWVNRSSMTFLTRQAFAKVFNTTPDDLDLHVIYDVSHNIAKVEQHVVDGKERTLLVHRKGSTRAFPPHHPLIAVDYQLTGQPVLIGGTMGTCSYVLTGTEQGMTETFGTTCHGAGRALSRAKSRRNLDFQDVLDKLADMGIAIRVASPKLVMEEAPESYKNVTDVVNTCHDAGISKKAIKLRPIAVIKG"
,binds,binds,binds,"CGI-99 (endogenous) (protein, UniProt Q9Y224 1-244) MFRRKLTALDYHNPAGFNCKDETEFRNFIVWLEDQKIRHYKIEDRGNLRNIHSSDWPKFFEKYLRDVNCPFKIQDRQEAIDWLLGLAVRLEYGDNAEKYKDLVPDNSKTADNATKNAEPLINLDVNNPDFKAGVMALANLLQIQRHDDYLVMLKAIRILVQERLTQDAVAKANQTKEGLPVALDKHILGFDTGDAVLNEAAQILRLLHIEELRELQTKINEAIVAVQAIIADPKTDHRLGKVGR"
,binds,binds,binds,"DDX1 (endogenous) (enzyme, UniProt Q92499-1 1-740) MAAFSEMGVMPEIAQAVEEMDWLLPTDIQAESIPLILGGGDVLMAAETGSGKTGAFSIPVIQIVYETLKDQQEGKKGKTTIKTGASVLNKWQMNPYDRGSAFAIGSDGLCCQSREVKEWHGCRATKGLMKGKHYYEVSCHDQGLCRVGWSTMQASLDLGTDKFGFGFGGTGKKSHNKQFDNYGEEFTMHDTIGCYLDIDKGHVKFSKNGKDLGLAFEIPPHMKNQALFPACVLKNAELKFNFGEEEFKFPPKDGFVALSKAPDGYIVKSQHSGNAQVTQTKFLPNAPKALIVEPSRELAEQTLNNIKQFKKYIDNPKLRELLIIGGVAARDQLSVLENGVDIVVGTPGRLDDLVSTGKLNLSQVRFLVLDEADGLLSQGYSDFINRMHNQIPQVTSDGKRLQVIVCSATLHSFDVKKLSEKIMHFPTWVDLKGEDSVPDTVHHVVVPVNPKTDRLWERLGKSHIRTDDVHAKDNTRPGANSPEMWSEAIKILKGEYAVRAIKEHKMDQAIIFCRTKIDCDNLEQYFIQQGGGPDKKGHQFSCVCLHGDRKPHERKQNLERFKKGDVRFLICTDVAARGIDIHGVPYVINVTLPDEKQNYVHRIGRVGRAERMGLAISLVATEKEKVWYHVCSSRGKGCYNTRLKEDGGCTIWYNEMQLLSEIEEHLNCTISQVEPDIKVPVDEFDGKVTYGQKRAAGGGSYKGHVDILAPTVQELAALEKEAQTSFLHLGYLPNQLFRTF"
,no binding,no binding,no binding,"Ashwin (endogenous) (protein, UniProt Q9BVC5-1 1-232) MAGDVGGRSCTDSELLLHPELLSQEFLLLTLEQKNIAVETDVRVNKDSLTDLYVQHAIPLPQRDLPKNRWGKMMEKKREQHEIKNETKRSSTVDGLRKRPLIVFDGSSTSTSIKVKKTENGDNDRLKPPPQASFTSNAFRKLSNSSSSVSPLILSSNLPVNNKTEHNNNDAKQNHDLTHRKSPSGPVKSPPLSPVGTTPVKLKRAAPKEEAEAMNNLKPPQAKRKIQHVTWP"
